Assay results published in publication PMC13288828.
Results are given in words; binding and its absence hold for the method and conditions named. In cells and extracts the contact can be indirect. Some entries that bind do so weakly or less than the wild type. For some assays here: Where a sequence is shown, tags or fusion partners need not be part of it.

Amino acid sequences for entries named in this document (tags omitted). A change or cut given only in a name is not applied to a line headed by its entry. Chains listed by the source or under a name are the forms on record and can include a tag or linker. Residues count along the entry.
UniProt Q86WV6: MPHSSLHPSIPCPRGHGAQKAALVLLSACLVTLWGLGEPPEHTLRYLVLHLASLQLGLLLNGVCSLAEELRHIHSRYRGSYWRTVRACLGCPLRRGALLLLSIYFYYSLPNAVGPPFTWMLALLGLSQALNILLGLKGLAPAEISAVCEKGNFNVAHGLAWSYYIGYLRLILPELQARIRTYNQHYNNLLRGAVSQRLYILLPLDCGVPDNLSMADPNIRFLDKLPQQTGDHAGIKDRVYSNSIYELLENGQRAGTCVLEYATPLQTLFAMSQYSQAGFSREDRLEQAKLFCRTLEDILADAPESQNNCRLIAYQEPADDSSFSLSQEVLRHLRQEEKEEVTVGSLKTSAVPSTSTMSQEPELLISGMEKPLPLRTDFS
Flag-tagged STING-ΔC: residues 1-339 of Q86WV6
Flag-tagged STING-TM: residues 1-153 of Q86WV6
Flag-tagged STING-ΔTM: residues 153-379 of Q86WV6
Flag-tagged STING-CDN: residues 153-339 of Q86WV6
UniProt P07355: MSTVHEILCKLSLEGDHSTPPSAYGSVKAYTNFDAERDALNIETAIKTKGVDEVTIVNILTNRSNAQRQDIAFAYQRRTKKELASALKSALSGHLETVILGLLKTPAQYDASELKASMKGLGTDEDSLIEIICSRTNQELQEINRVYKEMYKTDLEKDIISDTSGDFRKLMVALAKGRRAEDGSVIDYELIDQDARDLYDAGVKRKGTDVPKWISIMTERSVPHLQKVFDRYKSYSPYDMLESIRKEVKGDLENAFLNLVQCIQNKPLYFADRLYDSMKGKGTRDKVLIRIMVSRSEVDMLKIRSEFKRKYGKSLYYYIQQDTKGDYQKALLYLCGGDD
UniProt P07356: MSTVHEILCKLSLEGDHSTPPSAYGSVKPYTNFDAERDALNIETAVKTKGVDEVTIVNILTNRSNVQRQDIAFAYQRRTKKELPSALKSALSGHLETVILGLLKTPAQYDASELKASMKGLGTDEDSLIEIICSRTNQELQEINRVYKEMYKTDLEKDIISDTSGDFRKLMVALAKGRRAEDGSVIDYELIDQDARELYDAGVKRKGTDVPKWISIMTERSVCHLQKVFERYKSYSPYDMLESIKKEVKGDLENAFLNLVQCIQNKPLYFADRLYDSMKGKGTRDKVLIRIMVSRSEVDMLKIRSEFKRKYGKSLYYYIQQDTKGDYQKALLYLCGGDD

How the values were obtained:
Assay in all cases: co-IP
[1] = target: T1, Flag-tagged IRF3 (Flag-IRF3) (UniProt Q14653)
T1 sequence: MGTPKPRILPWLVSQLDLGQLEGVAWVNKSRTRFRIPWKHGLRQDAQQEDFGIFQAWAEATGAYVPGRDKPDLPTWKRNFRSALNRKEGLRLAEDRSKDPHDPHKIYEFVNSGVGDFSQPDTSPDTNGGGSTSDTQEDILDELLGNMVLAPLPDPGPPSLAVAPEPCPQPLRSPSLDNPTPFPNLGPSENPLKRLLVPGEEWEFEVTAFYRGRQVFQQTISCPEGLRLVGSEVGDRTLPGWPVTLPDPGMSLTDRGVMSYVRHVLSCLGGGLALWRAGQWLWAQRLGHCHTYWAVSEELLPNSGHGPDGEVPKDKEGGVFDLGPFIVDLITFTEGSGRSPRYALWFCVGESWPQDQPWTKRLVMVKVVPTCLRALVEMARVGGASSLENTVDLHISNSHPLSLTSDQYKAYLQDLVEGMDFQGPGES

Flag-tagged STING-ΔTM = Flag-tagged STING-ΔTM (UniProt Q86WV6)
Flag-tagged STING-ΔC = Flag-tagged STING-ΔC (UniProt Q86WV6)
[2] = target: Flag-tagged STING (Flag-STING) (UniProt Q86WV6)
Flag-tagged STING-TM = Flag-tagged STING-TM (UniProt Q86WV6)
Flag-tagged STING-CDN = Flag-tagged STING-CDN (UniProt Q86WV6)
[3] = target: T2, endogenous IRF3 of mouse peritoneal macrophages (mouse (endogenous in peritoneal macrophages)) (UniProt P70671)
T2 sequence: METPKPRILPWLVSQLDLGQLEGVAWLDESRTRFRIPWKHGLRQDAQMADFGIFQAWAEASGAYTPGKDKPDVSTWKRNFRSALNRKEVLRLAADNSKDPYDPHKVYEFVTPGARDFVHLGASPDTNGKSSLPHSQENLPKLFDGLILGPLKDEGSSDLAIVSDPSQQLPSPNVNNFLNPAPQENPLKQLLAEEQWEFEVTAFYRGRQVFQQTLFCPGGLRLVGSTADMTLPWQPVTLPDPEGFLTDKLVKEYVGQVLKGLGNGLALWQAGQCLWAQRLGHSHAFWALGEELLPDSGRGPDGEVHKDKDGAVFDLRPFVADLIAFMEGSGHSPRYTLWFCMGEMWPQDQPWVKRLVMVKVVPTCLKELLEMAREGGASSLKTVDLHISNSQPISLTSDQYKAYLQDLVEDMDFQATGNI

[4] = target: T3, endogenous STING of mouse peritoneal macrophages (mouse (endogenous in peritoneal macrophages)) (UniProt Q3TBT3)
T3 sequence: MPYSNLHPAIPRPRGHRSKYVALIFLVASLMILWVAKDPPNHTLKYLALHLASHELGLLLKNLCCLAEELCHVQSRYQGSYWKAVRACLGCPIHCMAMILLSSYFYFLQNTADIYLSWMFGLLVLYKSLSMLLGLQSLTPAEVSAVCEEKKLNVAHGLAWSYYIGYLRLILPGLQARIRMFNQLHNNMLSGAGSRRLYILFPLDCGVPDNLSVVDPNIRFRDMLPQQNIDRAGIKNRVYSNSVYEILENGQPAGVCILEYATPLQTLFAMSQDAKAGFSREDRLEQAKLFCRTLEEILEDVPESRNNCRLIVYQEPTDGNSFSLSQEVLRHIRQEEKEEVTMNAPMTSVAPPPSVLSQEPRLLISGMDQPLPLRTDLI

| Substance | binding [1] | other results |
| --- | --- | --- |
| HA-tagged ANXA2-D1 (from UniProt P07355 1-102) (domain or fragment) | no binding | – |
| HA-tagged ANXA2-D2 (from UniProt P07355 1-174) (domain or fragment) | binds | – |
| HA-tagged ANXA2-D3 (from UniProt P07355 1-259) (domain or fragment) | binds | – |
| HA-tagged ANXA2-D4 (from UniProt P07355 50-339) (domain or fragment) | binds | – |
| HA-tagged ANXA2-D5 (from UniProt P07355 122-339) (domain or fragment) | binds | – |
| HA-tagged ANXA2-D6 (from UniProt P07355 207-339) (domain or fragment) | binds | – |
| HA-tagged Annexin A2 (HA-ANXA2) (from UniProt P07355 1-339) | binds | binding (Flag-tagged STING-ΔTM): no binding; binding (Flag-tagged STING-ΔC): binds; binding [2]: binds; binding (Flag-tagged STING-TM): binds; binding (Flag-tagged STING-CDN): no binding |
| endogenous ANXA2 of mouse peritoneal macrophages (from UniProt P07356 1-339) | – | binding [3]: binds; binding [4]: binds |
